Experimental data: PubChem BioAssay AID1347055 (National Center for Advancing Translational Sciences (NCATS), 2019)
Hit rate of the full screen: of about 54,000 compounds, about 120 (0.22%) were called active. The inconclusive results got no clear call from the source; some entries with a clear call stand among them for comparison. Calls come from the whole dose curve; as a rule, active = well fitted inhibition curve with a large enough effect; inconclusive = small, poorly fitted or top-dose-only effect, or effect the other way; inactive = flat fitted curve, though single readings scatter. Potencies of inconclusive entries are left out as doubtful fits.

target: Fumarate hydratase, mitochondrial (Homo sapiens) (UniProt P07954); test: Identification of activators of human fumarate hydratase by quantitative high-throughput screening; settings: FH coupled MDH/diaphorase resazurin fluorescence, 15 min; activity change, negative = inhibition: at 79.9 µM (top of the series); note: the screen sought activators but most active calls are inhibition curves; nearly all actives have a fitted effect of over 45% in size
Source text: Fumarate hydratase (FH) is a metabolic enzyme that is part of the Krebs-cycle, and reversibly catalyzes the hydration of fumarate to malate. Mutations of the FH gene have been associated with fumarate hydratase deficiency (FHD), hereditary leiomyomatosis, renal cell cancer (HLRCC), and other diseases. Currently there are no high-quality small molecule probes for studying human fumarate hydratase. To address this, we developed a quantitative high throughput screening (qHTS) FH assay and screened a total of 57,037 compounds in dose-response. While no inhibitors of FH were confirmed, a series of phenyl-pyrrolo-pyrimidine-diones (12 compounds) were identified as activators of human fumarate hydratase. […] The binding of two compounds from the series to human fumarate hydratase was confirmed by microscale thermophoresis. The low hit rate in this screening campaign confirmed that FH is a "tough target" to modulate, and the small molecule activators of human fumarate hydratase reported here may serve as a starting point for further optimization and development into cellular probes of human FH and potential drug candidates.
For primary high-throughput screen, 3 ul of FH solution (containing 13.33nM human fumarate hydratase, 13.33IU/ml malic dehydrogenase, 0.2mM NAD, 0.067mg/ml diaphorase and 0.067mM resazurin in the assay buffer (50 mM Tris pH 8.0, 5 mM MgCl2, 0.01% Brij 3) was dispensed into each well in a black solid bottom 1536-well assay plate (Greiner Bio-One) using a BioRAPTR FRD dispenser (Beckman Coulter, Brea, CA). A 1536-well pintool dispenser outfitted with 20 nl pins (Wako Automation, San Diego, CA) was used to transfer 20 nL of DMSO-solubilized compound (Cherrypick plates) to each 1536-well assay plate. Each compound was screened at five concentrations: 15 nM, 151 nM, 1.5 uM, 15.4 uM, 76.9 uM. Following compound transfer, plates were incubated in room temperature for 10 minutes. 1 uL of substrate solution containing fumaric acid (160 uM) was dispensed via BioRAPTR FRD to initiate the reaction. Plates were immediately transferred to a ViewLux microplate imager (PerkinElmer, Waltham, MA), and any resulting resorufin fluorescence was measured (exitation/emission, 525/598 nm) at 0 and 15 minutes. The exposure time is 1 second. Fluorescence from each well was normalized using enzyme-free and DMSO-treated control wells on each plate, and changes in fluorescence (delta RFU) were calculated using the difference in fluorescent signal for each well at 15 minutes versus 0 minutes.
% is set by controls: 0 for no effect and ±100 for the full control effect; potency is the fitted concentration of half-maximal effect; tags give direction and shape of the fitted curve.

UniProt P07954, sequence (P07954 whole entry, looked up): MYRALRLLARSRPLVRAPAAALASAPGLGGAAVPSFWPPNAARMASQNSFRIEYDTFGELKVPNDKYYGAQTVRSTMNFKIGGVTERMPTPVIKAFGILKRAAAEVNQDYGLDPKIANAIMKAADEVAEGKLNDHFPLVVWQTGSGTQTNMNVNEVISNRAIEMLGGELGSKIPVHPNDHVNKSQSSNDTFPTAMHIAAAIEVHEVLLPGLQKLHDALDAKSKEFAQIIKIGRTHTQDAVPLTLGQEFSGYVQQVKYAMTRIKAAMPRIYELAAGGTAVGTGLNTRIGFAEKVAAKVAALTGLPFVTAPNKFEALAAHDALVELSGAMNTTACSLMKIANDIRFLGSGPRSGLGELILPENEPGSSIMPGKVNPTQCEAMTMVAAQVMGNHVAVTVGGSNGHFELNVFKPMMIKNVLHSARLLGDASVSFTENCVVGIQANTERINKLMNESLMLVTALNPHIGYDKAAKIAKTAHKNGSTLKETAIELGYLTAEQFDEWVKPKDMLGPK

**Q.** For `Cc1cccn2c(=O)c(/C=C(\C#N)c3nc4ccccc4s3)c(Oc3ccc(F)cc3)nc12`, which Potency is on record?
**A.** inconclusive [inhibitor, full curve, poor fit]

**Q.** For `CCOC(=O)c1noc2ncn(CC(=O)Nc3ccccc3OC)c(=O)c12`, which Potency is on record?
**A.** inactive

**Q.** Which Potency does the source give for `Cc1cc(C)cc(C(=O)N2CC(=O)Nc3ccc(Br)cc3C2c2ccccc2)c1` (stereo unspecified) here?
**A.** inconclusive [inhibitor, partial curve, poor fit]

**Q.** `COc1ccc2c(c1)-c1nc(NC(=O)c3cc(OC)c(OC)c(OC)c3)sc1CC2` was tested. Which Potency did it give?
**A.** inconclusive [inhibitor, partial curve]

**Q.** `CN1C(=O)c2[nH]nc(-c3ccc(F)cc3)c2C1c1cccc(O)c1` (stereo unspecified) was tested. Which Potency did it give?
**A.** inconclusive [inhibitor, partial curve, poor fit]

**Q.** How did the activity change, negative = inhibition turn out when `CC1(C)CC[C@]2(C(=O)O[C@@H]3O[C@H](CO[C@@H]4O[C@H](CO)[C@@H](O)[C@H](O)[C@H]4O[C@@H]4O[C@H](CO)[C@H](O)[C@H](O)[C@H]4O)[C@@H](O)[C@H](O[C@@H]4O[C@H](CO)[C@@H](O)[C@H](O)[C@H]4O)[C@H]3O)CC[C@]3(C)C(=CCC4[C@@]5(C)CC[C@H](O[C@@H]6OC[C@@H](O)[C@H](O)[C@H]6O)[C@@](C)(C(=O)O)C5CC[C@]43C)[C@@H]2C1` (stereo partly specified) was run?
**A.** inactive: -0.183% [at 13.5 µM]

**Q.** For `C#CC(C)(CC)NC(=O)Cn1nnc(-c2ccc(OCc3c(F)cccc3Cl)cc2)n1` (stereo unspecified), which Potency is on record?
**A.** inconclusive [inhibitor, partial curve]

**Q.** Which Potency does the source give for `Cc1ccc(C)c(CN2C(=O)c3ccccc3Sc3ccc(C(=O)NCc4ccco4)cc32)c1` here?
**A.** inconclusive [inhibitor, partial curve, poor fit]

**Q.** How did the Potency turn out when `CC1CCC(NC(=O)C2(C)Cc3ccccc3C(=O)N2Cc2ccccc2Cl)CC1` (stereo unspecified) was run?
**A.** inconclusive [inhibitor, single point]

**Q.** How did the Potency turn out when `CCOc1ccc(NC(=O)CC2C(=O)N(c3cccc(OC)c3)C(=O)N2C2CCCCC2)cc1` (stereo unspecified) was run?
**A.** inactive

**Q.** Which Potency does the source give for `CCC(Oc1ccc(F)cc1)C(=O)Nc1cc(-c2ccc(C)cc2)no1` (stereo unspecified) here?
**A.** inconclusive [inhibitor, single point]

**Q.** With `CCCc1oc2ccc(NS(=O)(=O)c3ccc(OC)cc3)cc2c1C(=O)OCC` as the compound, how does the Potency read?
**A.** inconclusive [inhibitor, single point]

**Q.** How did the Potency turn out when `CCOC(=O)c1cccc(NC(=O)C2CCN(c3nnc(C)c4c(C)n(-c5ccccc5)nc34)CC2)c1` was run?
**A.** inconclusive [inhibitor, partial curve, poor fit]

**Q.** Which Potency does the source give for `Cc1ccc(C(=O)Nc2nnc(SCc3cc(=O)n4ccc(C)cc4n3)s2)cc1` here?
**A.** inconclusive [inhibitor, full curve]

**Q.** `CCOc1ccccc1NC(=O)C1CCCN(S(=O)(=O)c2ccc3c(c2)CCCN3C(C)=O)C1` (stereo unspecified) was tested. Which Potency did it give?
**A.** inconclusive [activator, single point]

**Q.** Which Potency does the source give for `COc1cccc(CNc2ccc3c(c2)ncn3C)c1OC` here?
**A.** inconclusive [inhibitor, partial curve]

**Q.** With `O=C(O)c1ccnc2cc(-c3nc4ccccc4n3CCN3CCCCC3)sc12` as the compound, how does the Potency read?
**A.** active: 12.6 µM

**Q.** With `O=C1C(c2ccc(C(F)(F)F)cc2)=C(Nc2ccc(Cl)cc2)c2ccccc21` as the compound, how does the Potency read?
**A.** inconclusive [inhibitor, partial curve, poor fit]

**Q.** For `CC[C@H](NC(=O)c1c(C)c(-c2ccccc2)nc2ccccc12)c1ccccc1`, which Potency is on record?
**A.** inconclusive [inhibitor, single point]

**Q.** `CCS(=O)(=O)c1ncc(N(Cc2ccco2)Cc2sccc2C)c(C(=O)Nc2cc(C)ccc2C)n1` was tested. Which Potency did it give?
**A.** inconclusive [inhibitor, partial curve, poor fit]

**Q.** Which Potency does the source give for `CCOc1ccc(S(=O)(=O)Nc2ccc3oc(C)c(C(=O)OCCOC)c3c2)cc1` here?
**A.** inconclusive [inhibitor, partial curve, poor fit]

**Q.** Which Potency does the source give for `C=C(CCO)C(=O)OCC1OCC(OC(=O)C(=C)CCO[C@@H]2O[C@H](COC(=O)C(=C)CCO[C@@H]3O[C@H](CO)[C@@H](O)[C@H](O)[C@H]3O)[C@@H](O)[C@H](O)[C@H]2O)C(O)C1O` (stereo partly specified) here?
**A.** inactive

**Q.** For `CNC(=O)c1ccccc1Nc1nc(Nc2ccc(N3CCOCC3)cc2OC)ncc1Cl`, which Potency is on record?
**A.** inconclusive [inhibitor, single point]

**Q.** With `COc1cc(/C=C/c2nc(C#N)c(NC3CCCCC3)o2)cc(OC)c1OC` as the compound, how does the Potency read?
**A.** inconclusive [inhibitor, partial curve]

**Q.** How did the Potency turn out when `O=C(/C=C/c1cn(CC(O)CN2CCCCCC2)c2ccccc12)c1ccccc1` (stereo unspecified) was run?
**A.** inactive

**Q.** For `COc1ccc(NS(=O)(=O)c2nnc(NC(=O)c3ccccc3F)s2)cc1`, which Potency is on record?
**A.** inconclusive [inhibitor, partial curve, poor fit]

**Q.** How did the Potency turn out when `Cc1ccc2nc(NC(=O)c3cc(=O)c4cc(C)c(C)cc4o3)sc2c1` was run?
**A.** inactive

**Q.** With `COc1ccc(C2c3c(-c4ccccc4O)n[nH]c3C(=O)N2Cc2ccco2)cc1` (stereo unspecified) as the compound, how does the Potency read?
**A.** inconclusive [inhibitor, single point]

**Q.** `COc1ccc(NC(=O)Cn2c(=O)n(CCCC(=O)NCc3ccccc3OC)c(=O)c3ccccc32)cc1Cl` was tested. Which Potency did it give?
**A.** inactive

**Q.** How did the Potency turn out when `CCCn1c(SCc2nc(-c3ccccc3C)no2)nnc1-c1ccc(Cl)cc1` was run?
**A.** inconclusive [inhibitor, full curve]

**Q.** `Cn1c(=O)c2sccc2n2c(CCC(=O)NCc3ccc(F)cc3)nnc12` was tested. Which Potency did it give?
**A.** inconclusive [inhibitor, single point]

**Q.** Which Potency does the source give for `Cc1nc2ccccc2n1CCc1nc2c3ccccc3nc(SCc3cccc(F)c3)n2n1` here?
**A.** inconclusive [inhibitor, single point]

**Q.** For `CCOc1ccc(-n2c(SCc3nc(-c4ccc(OC)cc4)no3)nnc2-c2ccncc2)cc1`, which Potency is on record?
**A.** inconclusive [inhibitor, full curve]

**Q.** With `Cc1cc(C)c2c(CC(=O)Nc3ccc(S(=O)(=O)N4CCCC(C)C4)cc3)coc2c1` (stereo unspecified) as the compound, how does the Potency read?
**A.** inconclusive [inhibitor, partial curve]

**Q.** `CC(=O)OC1CC2(C)C3=CCC4(C)C5C(O)C(O)C(C(C)C)C5(C)CCC4(C)C3CCC2C(C)(C)C1OC1OC(CO)C(O)C(O)C1O` (stereo unspecified) was tested. Which Potency did it give?
**A.** inactive

**Q.** For `Cc1ccc(Nc2ncnc3c2cnn3-c2ccccc2)c(C)c1`, which Potency is on record?
**A.** inactive

**Q.** With `Cc1c2cnn(CC(=O)N3CCN(c4ccccc4)CC3)c(=O)c2c(C)n1Cc1ccc(F)cc1` as the compound, how does the Potency read?
**A.** inconclusive [inhibitor, partial curve, poor fit]

**Q.** Which Potency does the source give for `CCn1c2ccccc2c2cc(CN3CCN(Cc4cc(OC)c(O)c(OC)c4)CC3)ccc21` here?
**A.** inconclusive [inhibitor, partial curve, poor fit]

**Q.** Which Potency does the source give for `O=C(Nc1cccc(Cl)c1Cl)c1ccc2c(c1)N(Cc1cccc(Cl)c1)C(=O)c1ccccc1S2=O` (stereo unspecified) here?
**A.** inconclusive [inhibitor, single point]

**Q.** For `COc1cccc(C2C(C(=O)Nc3ccc(Cl)cc3)=C(C)Nc3nc4ccccc4n32)c1OC` (stereo unspecified), which Potency is on record?
**A.** inconclusive [inhibitor, partial curve, poor fit]

**Q.** Which Potency does the source give for `CC(C)N(CCCNC(=O)Nc1ccc(C(C)(C)C)cc1)C[C@H]1O[C@@H](n2cc(Br)c3c(N)ncnc32)[C@H](O)[C@@H]1O` here?
**A.** inactive

**Q.** For `Cc1c(CCNC(=O)c2ccc(Br)o2)sc2nc(-c3ccc(Cl)cc3)nn12`, which Potency is on record?
**A.** inconclusive [inhibitor, single point]

**Q.** For `Cc1[nH]c(C=C2C(=O)Nc3ccc(S(=O)(=O)Cc4c(Cl)cccc4Cl)cc32)c(C)c1C(=O)N1CCC[C@H]1CN1CCCC1`, which Potency is on record?
**A.** inactive

**Q.** Which Potency does the source give for `COc1cc(C)c(C(=O)OC2C(C)OC(OC3CCC(C)C4C3C=C(C)C3/C(C)=C\CC/C(C)=C/C5(C)C=C(C(=O)O)C(C)CC56OC(=O)/C(=C(\O)C34C)C6=O)C(O)C2O)c(OC)c1` (stereo unspecified) here?
**A.** inactive

**Q.** `Cc1[nH]c2ccccc2c1C(c1ccccc1)c1ccc(Cl)s1` (stereo unspecified) was tested. Which Potency did it give?
**A.** inconclusive [inhibitor, partial curve]

**Q.** For `CS(=O)(=O)c1ncc(Cl)c(C(=O)Nc2c(C(=O)Nc3ccccc3)oc3ccccc23)n1`, which Potency is on record?
**A.** inactive

**Q.** Which Potency does the source give for `Cc1cccc(N2CCN(S(=O)(=O)c3ccc4c(c3)C(C(C)C)C(=O)N4)CC2)c1C` (stereo unspecified) here?
**A.** inconclusive [inhibitor, single point]

**Q.** With `Cc1ccc2c(c1)c(=O)c1ccccc1n2CCCC(=O)Nc1ccc(C)c(F)c1` as the compound, how does the Potency read?
**A.** inactive

**Q.** How did the Potency turn out when `COc1ccc(Cn2c(C(=O)O)c(CNCC(C)c3ccccc3)c3ccc(OC)cc32)cc1` (stereo unspecified) was run?
**A.** inconclusive [inhibitor, partial curve, poor fit]

**Q.** Which Potency does the source give for `Nc1[nH]nc2nnc(-c3c(-c4ccccc4)nn4ccccc34)cc12` here?
**A.** inactive

**Q.** How did the Potency turn out when `O=C1CN(/N=C/c2ccc(-c3ccc([N+](=O)[O-])cc3)o2)C(=O)N1` was run?
**A.** inconclusive [inhibitor, partial curve, poor fit]

**Q.** Which Potency does the source give for `Cc1ccc(NC(=O)CSc2nnc3nc(C)cc(C)n23)cc1` here?
**A.** inconclusive [inhibitor, single point]

**Q.** `CC(C(=O)NCc1ccccc1Cl)n1ccc2cc(S(=O)(=O)N3CCCCC3)ccc21` (stereo unspecified) was tested. Which Potency did it give?
**A.** inactive

**Q.** With `Cc1ccc(C2c3c(-c4cc(C)ccc4O)n[nH]c3C(=O)N2Cc2ccco2)cc1` (stereo unspecified) as the compound, how does the Potency read?
**A.** inconclusive [inhibitor, partial curve, poor fit]

**Q.** For `CCOC(=O)c1c(C)[nH]c(CCC(=O)NCCCN2CCN(c3cc(Cl)ccc3C)CC2)c1C`, which Potency is on record?
**A.** inconclusive [inhibitor, single point]

**Q.** Which Potency does the source give for `Cc1cc(-c2ccc(C)c(S(=O)(=O)Nc3ccccc3C(F)(F)F)c2)on1` here?
**A.** inactive
